# Measurements taken from the supplement of paper PMC8728848.
# This is one part of the list.
# Key:
# Assay in all cases: glycan array binding signal (z-score within array); higher = stronger binding
# Details in all cases: glycan notation: IUPAC condensed, linker removed
# [1] = biological target: Gal(a1-3)Gal(b1-4)GlcNAc(b1-2)Man
# Outline: (§1)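 Glycan array binding is given as a within-array Z-score, which can be read as non-binding when negative. The arrays, 3228 of them, came from the Consortium for Functional Glycomics database and were retained only where the protein sequence was available. Z-scores were averaged across arrays of the same protein sequence at different concentrations or buffers and across linkers.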
# [2] = biological target: Gal(a1-3)Gal(b1-4)GlcNAc(b1-2)Man(a1-3)[Gal(a1-3)Gal(b1-4)GlcNAc(b1-2)Man(a1-6)]Man(b1-4)GlcNAc(b1-4)GlcNAc
# Outline: as §1
# [3] = biological target: Gal(a1-3)Gal(b1-4)GlcNAc(b1-3)GalNAc
# Outline: as §1
# [4] = biological target: Gal(a1-3)Gal(b1-4)GlcNAc(b1-6)GalNAc
# Outline: as §1
# [5] = biological target: Gal(a1-3)Gal(b1-4)[Fuc(a1-3)]GlcNAc
# Outline: as §1
# [6] = biological target: Gal(a1-3)Gal(b1-4)[Fuc(a1-3)]GlcNAc(b1-2)Man(a1-3)[Gal(a1-3)Gal(b1-4)[Fuc(a1-3)]GlcNAc(b1-2)Man(a1-6)]Man(b1-4)GlcNAc(b1-4)GlcNAc
# Outline: as §1
# Gal(a1-3)GalNAc = biological target: Gal(a1-3)GalNAc
# Outline: as §1
# [7] = biological target: Gal(a1-3)[Gal(a1-4)]Gal(b1-4)GlcNAc
# Outline: as §1
# [8] = biological target: Gal(a1-4)Gal(b1-3)GlcNAc(b1-2)Man(a1-3)[Gal(a1-4)Gal(b1-3)GlcNAc(b1-2)Man(a1-6)]Man(b1-4)GlcNAc(b1-4)GlcNAc
# Outline: as §1
# Gal(a1-4)Gal(b1-4)Glc = biological target: Gal(a1-4)Gal(b1-4)Glc
# Outline: as §1
# Gal(a1-4)Gal(b1-4)GlcNAc = biological target: Gal(a1-4)Gal(b1-4)GlcNAc
# Outline: as §1
# [9] = biological target: Gal(a1-4)Gal(b1-4)GlcNAc(b1-2)Man(a1-3)[Gal(a1-4)Gal(b1-4)GlcNAc(b1-2)Man(a1-6)]Man(b1-4)GlcNAc(b1-4)GlcNAc
# Outline: as §1
# [10] = biological target: Gal(a1-4)Gal(b1-4)GlcNAc(b1-3)Gal(b1-4)Glc
# Outline: as §1
# Gal(a1-4)GlcNAc = biological target: Gal(a1-4)GlcNAc
# Outline: as §1
# Gal(a1-6)Glc = biological target: Gal(a1-6)Glc
# Outline: as §1
# Gal(b1-2)Gal = biological target: Gal(b1-2)Gal
# Outline: as §1
# Gal(b1-3)Gal = biological target: Gal(b1-3)Gal
# Outline: as §1
# Gal(b1-3)Gal(b1-4)GlcNAc = biological target: Gal(b1-3)Gal(b1-4)GlcNAc
# Outline: as §1
# Gal(b1-3)GalNAc = biological target: Gal(b1-3)GalNAc
# Outline: as §1
# [11] = biological target: Gal(b1-3)GalNAc(a1-3)[Fuc(a1-2)]Gal(b1-4)Glc
# Outline: as §1
# [12] = biological target: Gal(b1-3)GalNAc(a1-3)[Fuc(a1-2)]Gal(b1-4)GlcNAc
# Outline: as §1
# Gal(b1-3)GalNAc(b1-3)Gal = biological target: Gal(b1-3)GalNAc(b1-3)Gal
# Outline: as §1
# [13] = biological target: Gal(b1-3)GalNAc(b1-3)Gal(a1-4)Gal(b1-4)Glc
# Outline: as §1
# [14] = biological target: Gal(b1-3)GalNAc(b1-4)Gal(b1-4)Glc
# Outline: as §1
# [15] = biological target: Gal(b1-3)GalNAc(b1-4)[Neu5Ac(a2-3)]Gal(b1-4)Glc
# Outline: as §1
# Gal(b1-3)GlcNAc = biological target: Gal(b1-3)GlcNAc
# Outline: as §1
# [16] = biological target: Gal(b1-3)GlcNAc(a1-3)Gal(b1-4)GlcNAc
# Outline: as §1
# [17] = biological target: Gal(b1-3)GlcNAc(a1-6)Gal(b1-4)GlcNAc
# Outline: as §1
# Gal(b1-3)GlcNAc(b1-2)Man = biological target: Gal(b1-3)GlcNAc(b1-2)Man
# Outline: as §1
# [18] = biological target: Gal(b1-3)GlcNAc(b1-2)Man(a1-3)[Gal(b1-3)GlcNAc(b1-2)Man(a1-6)]Man(b1-4)GlcNAc(b1-4)GlcNAc
# Outline: as §1
# [19] = biological target: Gal(b1-3)GlcNAc(b1-2)Man(a1-3)[Gal(b1-3)GlcNAc(b1-2)Man(a1-6)]Man(b1-4)GlcNAc(b1-4)[Fuc(a1-6)]GlcNAc
# Outline: as §1
# [20] = biological target: Gal(b1-3)GlcNAc(b1-2)Man(a1-3)[GlcNAc(b1-4)][Gal(b1-3)GlcNAc(b1-2)Man(a1-6)]Man(b1-4)GlcNAc(b1-4)GlcNAc
# Outline: as §1
# [21] = biological target: Gal(b1-3)GlcNAc(b1-2)[Gal(b1-3)GlcNAc(b1-6)]Man(a1-6)[Gal(b1-3)GlcNAc(b1-2)Man(a1-3)]Man(b1-4)GlcNAc(b1-4)GlcNAc
# Outline: as §1
# [22] = biological target: Gal(b1-3)GlcNAc(b1-3)Gal(b1-3)GlcNAc
# Outline: as §1
# [23] = biological target: Gal(b1-3)GlcNAc(b1-3)Gal(b1-4)Glc
# Outline: as §1
# [24] = biological target: Gal(b1-3)GlcNAc(b1-3)Gal(b1-4)GlcNAc
# Outline: as §1
# [25] = biological target: Gal(b1-3)GlcNAc(b1-3)Gal(b1-4)GlcNAc(b1-2)Man(a1-3)[Gal(b1-3)GlcNAc(b1-3)Gal(b1-4)GlcNAc(b1-2)Man(a1-6)]Man(b1-4)GlcNAc(b1-4)GlcNAc
# Outline: as §1
# [26] = biological target: Gal(b1-3)GlcNAc(b1-3)Gal(b1-4)GlcNAc(b1-2)[Gal(b1-3)GlcNAc(b1-3)Gal(b1-4)GlcNAc(b1-6)]Man(a1-6)[Gal(b1-3)GlcNAc(b1-3)Gal(b1-4)GlcNAc(b1-2)Man(a1-3)]Man(b1-4)GlcNAc(b1-4)[Fuc(a1-6)]GlcNAc
# Outline: as §1
# [27] = biological target: Gal(b1-3)GlcNAc(b1-3)Gal(b1-4)GlcNAc(b1-3)Gal(b1-4)GlcNAc(b1-2)[Gal(b1-3)GlcNAc(b1-3)Gal(b1-4)GlcNAc(b1-3)Gal(b1-4)GlcNAc(b1-6)]Man(a1-6)[Gal(b1-3)GlcNAc(b1-3)Gal(b1-4)GlcNAc(b1-3)Gal(b1-4)GlcNAc(b1-2)Man(a1-3)]Man(b1-4)GlcNAc(b1-4)[Fuc(a1-6)]GlcNAc
# Outline: as §1
# [28] = biological target: Gal(b1-3)GlcNAc(b1-3)Gal(b1-4)GlcNAc(b1-6)[Gal(b1-3)GlcNAc(b1-3)]Gal(b1-4)Glc
# Outline: as §1
# [29] = biological target: Gal(b1-3)GlcNAc(b1-3)Gal(b1-4)[Fuc(a1-3)]GlcNAc
# Outline: as §1
# [30] = biological target: Gal(b1-3)GlcNAc(b1-3)Gal(b1-4)[Fuc(a1-3)]GlcNAc(b1-6)[Gal(b1-3)GlcNAc(b1-3)]Gal(b1-4)Glc
# Outline: as §1
# [31] = biological target: Gal(b1-3)GlcNAc(b1-3)GalNAc
# Outline: as §1
# [32] = biological target: Gal(b1-3)GlcNAc(b1-6)Gal(b1-4)GlcNAc
# Outline: as §1
# [33] = biological target: Gal(b1-3)GlcNAc(b1-6)GalNAc
# Outline: as §1
binder,measurement,setting,value
Microvirin-2 (Microcystis aeruginosa) (protein) MPNFSHTCSSINYDPDSTILSAECQARDGEWLPTELRLSDHIGNIDGELQFGDQNFQETCQDCHLEFGDGEQSVWLVCTCQTMDGEWKSTQILLDSQIDNNDSQLEIGGSMPNFSHTCSSINYDPDSTILSAECQARDGEWLPTELRLSDHIGNIDGELQFGDQNFQETCQDCHLEFGDGEQSVWLVCTCQTMDGEWKSTQILLDSQIDNNDSQLEIG,glycan array binding signal (z-score),[1],-0.124
same,glycan array binding signal (z-score),[2],-0.072
same,glycan array binding signal (z-score),[3],-0.139
same,glycan array binding signal (z-score),[4],-0.134
same,glycan array binding signal (z-score),[5],-0.137
same,glycan array binding signal (z-score),[6],-0.112
same,glycan array binding signal (z-score),Gal(a1-3)GalNAc,-0.125
same,glycan array binding signal (z-score),[7],-0.137
same,glycan array binding signal (z-score),[8],-0.087
same,glycan array binding signal (z-score),Gal(a1-4)Gal(b1-4)Glc,-0.135
same,glycan array binding signal (z-score),Gal(a1-4)Gal(b1-4)GlcNAc,-0.126
same,glycan array binding signal (z-score),[9],-0.08
same,glycan array binding signal (z-score),[10],-0.14
same,glycan array binding signal (z-score),Gal(a1-4)GlcNAc,-0.128
same,glycan array binding signal (z-score),Gal(a1-6)Glc,-0.138
same,glycan array binding signal (z-score),Gal(b1-2)Gal,-0.122
same,glycan array binding signal (z-score),Gal(b1-3)Gal,-0.144
same,glycan array binding signal (z-score),Gal(b1-3)Gal(b1-4)GlcNAc,-0.134
same,glycan array binding signal (z-score),Gal(b1-3)GalNAc,-0.135
same,glycan array binding signal (z-score),[11],-0.12
same,glycan array binding signal (z-score),[12],-0.13
same,glycan array binding signal (z-score),Gal(b1-3)GalNAc(b1-3)Gal,-0.119
same,glycan array binding signal (z-score),[13],-0.124
same,glycan array binding signal (z-score),[14],-0.142
same,glycan array binding signal (z-score),[15],-0.132
same,glycan array binding signal (z-score),Gal(b1-3)GlcNAc,-0.129
same,glycan array binding signal (z-score),[16],-0.139
same,glycan array binding signal (z-score),[17],-0.132
same,glycan array binding signal (z-score),Gal(b1-3)GlcNAc(b1-2)Man,-0.112
same,glycan array binding signal (z-score),[18],-0.088
same,glycan array binding signal (z-score),[19],-0.093
same,glycan array binding signal (z-score),[20],0.148
same,glycan array binding signal (z-score),[21],0.082
same,glycan array binding signal (z-score),[22],-0.13
same,glycan array binding signal (z-score),[23],-0.131
same,glycan array binding signal (z-score),[24],-0.149
same,glycan array binding signal (z-score),[25],-0.056
same,glycan array binding signal (z-score),[26],0.394
same,glycan array binding signal (z-score),[27],0.408
same,glycan array binding signal (z-score),[28],-0.146
same,glycan array binding signal (z-score),[29],-0.125
same,glycan array binding signal (z-score),[30],-0.137
same,glycan array binding signal (z-score),[31],-0.139
same,glycan array binding signal (z-score),[32],-0.135
same,glycan array binding signal (z-score),[33],-0.143
